Measured values from PubChem BioAssay AID360 (National Center for Advancing Translational Sciences (NCATS), 2006).
About 550 (1.1%) of roughly 48,000 compounds were called active. Inconclusive results (about 4%) are left out. Cut-off read from the data, not from the text of the source: active = potency below about 15 µM; inconclusive = mostly about 16 µM to 33 µM; inactive = weaker than that. This is one part of the list.

target: Lysosomal acid glucosylceramidase (Homo sapiens) (UniProt P04062); assay: Glucocerebrosidase; conditions: purified enzyme, resorufin glucoside fluorescence (screen aimed at inhibitors), 20 min;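 note: the screen sought inhibitors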
Sequence of UniProt P04062 (P04062 whole entry, looked up): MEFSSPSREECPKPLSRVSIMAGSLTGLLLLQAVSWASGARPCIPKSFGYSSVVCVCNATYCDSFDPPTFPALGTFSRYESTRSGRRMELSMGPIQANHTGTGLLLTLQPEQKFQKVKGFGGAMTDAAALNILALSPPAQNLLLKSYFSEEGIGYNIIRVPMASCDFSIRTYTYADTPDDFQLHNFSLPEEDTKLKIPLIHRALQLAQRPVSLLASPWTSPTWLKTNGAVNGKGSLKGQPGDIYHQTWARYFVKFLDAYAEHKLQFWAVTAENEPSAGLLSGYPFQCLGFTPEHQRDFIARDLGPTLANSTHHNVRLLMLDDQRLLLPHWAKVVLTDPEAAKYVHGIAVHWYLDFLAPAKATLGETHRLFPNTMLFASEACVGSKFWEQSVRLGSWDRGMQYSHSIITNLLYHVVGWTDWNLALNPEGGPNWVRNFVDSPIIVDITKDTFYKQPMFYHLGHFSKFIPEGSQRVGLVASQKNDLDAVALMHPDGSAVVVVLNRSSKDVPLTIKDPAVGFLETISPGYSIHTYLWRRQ
Outline: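 Wild-type enzyme at 0.2 nM final in 50mM citric acid/KH2PO4, 10mM sodium taurocholate, 0.01% tween-20, pH 5.9, with resorufin beta-D-glucopyranoside at 30 uM final. Compounds titrated, 20 min at RT, red fluorescence read; AC50 from titration.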
Potency is the fitted concentration of half-maximal effect.

Potency, inactive:
CCCCn1nnc(NC(=O)c2cc3ccccc3o2)n1 > 76.9 µM
COc1ccc(N(C(=O)Cn2nnc3ccccc32)C(C(=O)NCc2ccco2)c2cccnc2)cc1 (stereo not given) > 76.9 µM
CCn1c(COc2ccccc2C)nnc1SCC(=O)N1CCC(C)CC1 > 76.9 µM
O=C(CCS(=O)(=O)c1cccc2nsnc12)N1CCN(C(=O)c2ccco2)CC1 > 76.9 µM
Cc1oc(-c2ccccc2Cl)nc1CSCC(=O)N1CCCC1 > 76.9 µM
CCCc1nc(NCc2ccncc2)c2nnn(Cc3ccccc3F)c2n1 > 76.9 µM
CCc1nnc(NC(=O)CSc2nnc(-c3ccco3)n2C)s1 > 76.9 µM
CCN1/C(=C(\O)c2ccccc2)C(=O)c2ccccc2S1(=O)=O > 76.9 µM
COc1cc(/C=c2\s/c(=C(/C#N)C(=O)N3CCCC3)n(-c3ccccc3)c2=O)ccc1O > 76.9 µM
CS(=O)(=O)N1CCN(C(=O)c2cc(-c3cccs3)nc3ccccc23)CC1 > 76.9 µM
O=S(=O)(Nc1nc2ccccc2[nH]1)c1ccc(Cl)cc1 > 76.9 µM
CC(=O)c1cccc(NC(=O)NCCS(C)=O)c1 (stereo not given) > 76.9 µM
CC(=O)Nc1cnc(NC(=O)c2cccc(F)c2)cc1C > 76.9 µM
CCN1CCN(C(c2ccc(F)cc2)c2nnnn2Cc2cccs2)CC1 (stereo not given) > 76.9 µM
CCCCCCc1nc2ccccc2c(=O)n1N > 76.9 µM
CC(C)(C)NC(=O)CN1CCC(O)(c2ccccc2)CC1 > 76.9 µM
CC1CN(c2c3c(nc4ncnn24)CCCC3)CC(C)O1 (stereo not given) > 76.9 µM
CCC(C)(C(=O)NC1CCCCC1)N(C(=O)c1cnccn1)c1c(C)n(C)n(-c2ccccc2)c1=O (stereo not given) > 76.9 µM
COc1cc(NC(=O)N2CCOCC2)cc(OC)c1 > 76.9 µM
CCOC(=O)c1[nH]c(C)c(C)c1C > 76.9 µM
Cn1c(SCC(=O)N2CCN(c3ccccc3)CC2)nnc1-c1cc2ccccc2o1 > 76.9 µM
CCOC(=O)N1CCN(C(=O)C2CCCN(S(C)(=O)=O)C2)CC1 (stereo not given) > 76.9 µM
COC(=O)c1ccccc1NC(=O)Nc1cnccn1 > 76.9 µM
CCc1c(C(=O)Nc2ccc(OC)cc2)[nH]c(C)c1C(C)=O > 76.9 µM
O=C(CN(CC(=O)N1CCOCC1)S(=O)(=O)c1ccc(Br)s1)N1CCOCC1 > 76.9 µM
CCOC(=O)c1sc(NC(=O)CSc2ncn(-c3ccccc3)n2)nc1C > 76.9 µM
COC(=O)c1c(C)[nH]c(C)c1-c1ccccc1 > 76.9 µM
COc1ccc(OC)c(-c2[nH]nc3c2C(c2ccco2)C(C#N)=C(N)O3)c1 (stereo not given) > 76.9 µM
COc1ccc(OC)c(S(=O)(=O)N(C)CC(=O)Nc2ccc3c(c2)OCCO3)c1 > 76.9 µM
CC(=O)Nc1ccc(N/C=C/C(=O)c2ccco2)cc1 > 76.9 µM
COCCN(C(=O)CCC(=O)Nc1ccccn1)C(C(=O)NCCC(C)C)c1ccc(OC)cc1 (stereo not given) > 76.9 µM
Cc1onc(-c2c(Cl)cccc2Cl)c1C(=O)Nn1cnnc1 > 76.9 µM
COc1ccc(Cl)cc1N1C(=O)C2CCCN2C1c1sccc1C (stereo not given) > 76.9 µM
COc1ccc(N(CC(=O)NC2CCCC2)C(=O)c2ccc(N3CCCCC3)nc2)cc1 > 76.9 µM
OC(COCc1ccccc1)CN1CCN(c2ccccc2)CC1 (stereo not given) > 76.9 µM
COc1cccc(N=C2SC(C(=O)Nc3ccccc3F)CC(=O)N2C)c1 (stereo not given) > 76.9 µM
CCOC(=O)c1[nH]c2ccc(C)cc2c1N=C(C)N(C)C > 76.9 µM
CN1C(=O)N(S(=O)(=O)c2ccc(F)c(F)c2F)C(=O)C1(C)C > 76.9 µM
COc1ccc(NC(=O)c2ccccc2Cl)cc1NC(=O)CN1CCOCC1 > 76.9 µM
CCN1CCN(c2nc3c(c(=O)[nH]c(=O)n3C)n2CCCSc2ncccn2)CC1 > 76.9 µM
Cn1c(=O)cc(OCC(=O)NCc2cccnc2)c2ccccc21 > 76.9 µM
Cc1occc1C(=O)Nc1cccnc1 > 76.9 µM
CCOC(=O)c1ccc(CNC(=O)c2cc(C(C)(C)C)oc2C)o1 > 76.9 µM
CC(C)CCSc1nc2c(c(=O)[nH]c(=O)n2C)n1CCc1ccccc1 > 76.9 µM
CCCS(=O)(=O)N1CCCC(C(=O)NCCN2CCC(Cc3ccccc3)CC2)C1 (stereo not given) > 76.9 µM
CC(=O)NC(Cc1ccccc1)C(=O)N1CCN(C(=O)c2cccs2)CC1 (stereo not given) > 76.9 µM
Cc1ccc(C(=O)CC(C(=O)O)n2ccc(C)n2)cc1 (stereo not given) > 76.9 µM
C=C(C)CSc1nc(C)c(Cc2ccccc2)c(=O)[nH]1 > 76.9 µM
O=C(Cn1c(SCC(=O)NC2CCCC2)nnc1-c1ccncc1)Nc1ccc2c(c1)OCO2 > 76.9 µM
CCN(CC)S(=O)(=O)c1cccc(C(=O)N2CC(O)CC2C(=O)O)c1 (stereo not given) > 76.9 µM
COc1ccc(OC)c(C2N(c3cc(C)on3)C(=O)C3CCCN32)c1 (stereo not given) > 76.9 µM
Cn1c(=O)c2c(ncn2CC(=O)OCC(=O)NC2CCCc3ccccc32)n(C)c1=O (stereo not given) > 76.9 µM
CCOC(=O)c1cnc(C(C)(C)C)[nH]c1=O > 76.9 µM
CC1Cc2cc(-c3csc(NC(=O)Cc4cccs4)n3)ccc2N1S(C)(=O)=O (stereo not given) > 76.9 µM
Cc1ccc(C)c(Cc2c(C)nc3c(C(=O)N4CCOCC4)cnn3c2C)c1 > 76.9 µM
Cc1c(-c2ccccc2)sc(N)c1C(=O)N1CCOCC1 > 76.9 µM
O=C(CCCc1c[nH]c2ccccc12)N1CCOCC1 > 76.9 µM
Cc1c(NC(=O)C2CCCN2S(=O)(=O)c2ccc(Cl)cc2)c(=O)n(-c2ccccc2)n1C (stereo not given) > 76.9 µM
Cc1ccc(S(=O)(=O)N2CCCC2C(=O)NC2CCCCC2)cc1 (stereo not given) > 76.9 µM
CC(=O)N1CCc2cc(NS(=O)(=O)c3cccs3)ccc21 > 76.9 µM
COc1ccc2[nH]cc(C(=O)CN3CCN(C/C=C/c4ccccc4)CC3)c2c1 > 76.9 µM
Cc1nnc(N(C)C(=O)Cc2ccc3c(c2)OCO3)s1 > 76.9 µM
Cc1csc(NC(=O)CCn2c(=O)sc3ccccc32)n1 > 76.9 µM
COCCN(C(=O)CCCC(=O)Nc1ccccn1)C(C(=O)NC1CCCC1)c1ccc(C)cc1 (stereo not given) > 76.9 µM
Cc1sc2nc(SCC(=O)NCc3ccco3)n(-c3ccccc3)c(=O)c2c1C > 76.9 µM
COc1cccc(C2(O)CCN(C(=O)C3CCC3)CC2)c1 > 76.9 µM
O=C(Nc1cccnc1)c1ccccc1Oc1ccccc1 > 76.9 µM
CC(=O)C1=C(C)NC(=O)NC1c1cc(Br)ccc1OCC(N)=O (stereo not given) > 76.9 µM
Cn1c2ccccc2c2cnn(CC(=O)N3CCN(c4ncccn4)CC3)c(=O)c21 > 76.9 µM
CC1(C)CSC(=S)N1S(=O)(=O)c1ccccc1 > 76.9 µM
CCC1Oc2ccccc2N(CC(=O)Nc2ccc(OC)cc2OC)C1=O (stereo not given) > 76.9 µM
O=C(OCn1nnc2ccccc2c1=O)c1ccc2ccccc2n1 > 76.9 µM
CCOC(=O)C1CCN(C(=O)c2ccc(SC)cc2OC)CC1 > 76.9 µM
Cc1cccn2c(=O)c3cc(C(=O)NCc4cccnc4)c(=N)n(C(C)C)c3nc12 > 76.9 µM
Cc1cc2ncn(N)c2cc1C > 76.9 µM
Cn1c(=NC(=O)CSCC(=O)N2CCCC2)sc2ccccc21 > 76.9 µM
Cc1nn2c(CN(C(=O)c3ccco3)c3ccccc3)nnc2c2ccccc12 > 76.9 µM
CC(C)C(NS(=O)(=O)c1ccc(Br)s1)C(=O)O (stereo not given) > 76.9 µM
Cn1c(COc2ccccc2)nnc1SCc1cc(=O)[nH]c2ccccc12 > 76.9 µM
COc1cccc(N2CCN(CC(=O)NCc3cccs3)CC2)c1 > 76.9 µM
CCOc1ccc(C(=O)CN2CCN(S(=O)(=O)c3ccc(Cl)cc3)CC2)cc1 > 76.9 µM
O=C(O)c1ccccc1C(=O)N1CCN(c2cccc(Cl)c2)CC1 > 76.9 µM
Cc1ccc(-n2c(Cn3cnc4ccccc43)nnc2SCC(=O)O)cc1 > 76.9 µM
CCOC(=O)C1CCN(Cc2nc3ccc(Cl)cc3n2CCO)CC1 > 76.9 µM
CN(C)/C=N/c1ncnc2c1cnn2-c1ccc(C(F)(F)F)cn1 > 76.9 µM
Cc1ccc2nc(NC(=O)C3CCN(S(=O)(=O)c4cccc5nsnc45)CC3)sc2c1 > 76.9 µM
COCC(=O)Nc1ccccc1NC(C)=O > 76.9 µM
O=S(=O)(Nc1ccc(S(=O)(=O)N2CCCCC2)cc1)c1cccs1 > 76.9 µM
CCN(c1cccc(C(F)(F)F)c1)S(=O)(=O)c1ccc2c(c1)CCN2C(=O)C1CC1 > 76.9 µM
CCN(CC)CCCN1C(=O)c2oc3ccccc3c(=O)c2C1c1cc(OC)ccc1OC (stereo not given) > 76.9 µM
